These results are taken from US8685403 (University of California, dated 2014).

The target of this assay is T1, recombinant soluble integrin αvβ3 (UniProt P06756 31-992; P05106 27-718).
T1 construct: also called soluble αvβ3; purified soluble αvβ3
The experiment in a line: SPR, soluble αvβ3 immobilized on a CM5 chip, IGF1 0.125-8 µM in HBS-P with 1 mM Mn2+, 1:1 binding with drifting baseline.

T1 sequence (P06756 31-992, chain 1 of 2): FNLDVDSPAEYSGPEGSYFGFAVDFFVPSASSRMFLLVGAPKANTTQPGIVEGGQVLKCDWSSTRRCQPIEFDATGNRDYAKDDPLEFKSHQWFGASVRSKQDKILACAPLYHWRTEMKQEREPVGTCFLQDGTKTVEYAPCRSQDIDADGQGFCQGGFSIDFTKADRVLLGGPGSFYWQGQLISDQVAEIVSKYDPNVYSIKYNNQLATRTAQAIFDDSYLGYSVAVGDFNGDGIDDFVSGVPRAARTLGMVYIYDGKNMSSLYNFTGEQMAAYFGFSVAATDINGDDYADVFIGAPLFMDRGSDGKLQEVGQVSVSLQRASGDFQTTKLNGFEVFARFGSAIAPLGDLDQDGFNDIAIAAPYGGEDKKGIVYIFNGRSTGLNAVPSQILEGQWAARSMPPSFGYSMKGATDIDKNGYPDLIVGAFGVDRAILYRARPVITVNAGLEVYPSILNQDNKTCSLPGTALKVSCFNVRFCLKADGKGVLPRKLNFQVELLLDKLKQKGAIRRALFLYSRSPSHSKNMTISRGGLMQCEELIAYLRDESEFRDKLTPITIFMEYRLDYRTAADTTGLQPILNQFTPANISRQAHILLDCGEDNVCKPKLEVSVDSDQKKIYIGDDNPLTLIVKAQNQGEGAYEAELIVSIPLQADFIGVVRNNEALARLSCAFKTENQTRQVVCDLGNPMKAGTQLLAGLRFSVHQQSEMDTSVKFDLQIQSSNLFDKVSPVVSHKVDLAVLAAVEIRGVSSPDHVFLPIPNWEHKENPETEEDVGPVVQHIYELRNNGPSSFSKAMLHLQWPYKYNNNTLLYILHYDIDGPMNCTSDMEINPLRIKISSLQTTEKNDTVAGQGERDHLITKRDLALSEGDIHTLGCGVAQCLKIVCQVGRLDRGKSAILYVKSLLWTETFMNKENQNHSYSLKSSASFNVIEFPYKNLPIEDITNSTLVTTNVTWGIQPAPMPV
T1 sequence (P05106 27-718, chain 2 of 2, further chain): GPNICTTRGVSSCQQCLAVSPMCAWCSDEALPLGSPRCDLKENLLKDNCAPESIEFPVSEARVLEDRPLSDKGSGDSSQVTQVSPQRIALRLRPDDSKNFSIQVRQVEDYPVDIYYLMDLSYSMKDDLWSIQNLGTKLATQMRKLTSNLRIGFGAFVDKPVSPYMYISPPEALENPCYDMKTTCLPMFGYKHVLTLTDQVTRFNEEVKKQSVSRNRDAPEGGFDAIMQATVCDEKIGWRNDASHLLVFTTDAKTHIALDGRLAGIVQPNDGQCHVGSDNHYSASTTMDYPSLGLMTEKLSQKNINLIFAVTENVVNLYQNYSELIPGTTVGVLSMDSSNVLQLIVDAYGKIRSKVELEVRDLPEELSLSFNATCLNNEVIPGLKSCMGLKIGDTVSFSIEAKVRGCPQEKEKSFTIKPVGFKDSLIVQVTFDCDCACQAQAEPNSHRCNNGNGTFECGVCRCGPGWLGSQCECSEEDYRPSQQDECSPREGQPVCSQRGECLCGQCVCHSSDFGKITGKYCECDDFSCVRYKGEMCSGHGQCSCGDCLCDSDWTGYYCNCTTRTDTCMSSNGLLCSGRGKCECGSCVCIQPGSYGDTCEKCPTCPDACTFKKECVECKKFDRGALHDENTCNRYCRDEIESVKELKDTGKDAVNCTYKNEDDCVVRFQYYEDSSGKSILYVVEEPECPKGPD

B1: wild type IGF-1 with a 6His-tag at the C-terminus (ligand)
chain: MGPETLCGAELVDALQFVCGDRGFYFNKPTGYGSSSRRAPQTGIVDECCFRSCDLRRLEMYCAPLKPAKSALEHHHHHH
modifications: biotinylated when used as the labelled ligand in the IGF1R competition assay (site not stated)
notes: also called wt IGF1; WT IGF-1
With B1, the equilibrium dissociation constant (Kd) turned out to be 506 nM, the koff amounted to 0.00169 s⁻¹ and the kon is 3330 M⁻¹ s⁻¹.
